We go through 40 compounds from the supplement of paper PMC8512760.

Structures are written as SMILES. The list shows a part of the results. Repeats are few or missing, and single values can be far off.
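Also: stably firefly luciferase-GFP labeled cells in 96-well plates, viability read as luciferase photon flux after d-luciferin addition, treated wells normalized to vehicle wells, single-dose high-throughput screen.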

The subject of the assay is MDA-468. Put plainly: cell viability relative to vehicle (% of vehicle); basal-like triple-negative breast cancer lines; higher = less cytotoxic. As to conditions: 10 µM; 72 h.
Turning to `Oc1c(Br)cc(Br)c2cccnc12` [Broxyquinoline], the cell viability was determined as 26.6.
The same measure for `OCCOc1ccc(C(=C(CCCl)c2ccccc2)c2ccccc2)cc1` [Ospemifene]: 107; for `Cc1ccc(C(=O)N(CCCN)C(c2nc3cc(Cl)ccc3c(=O)n2Cc2ccccc2)C(C)C)cc1` (stereo not given): 23.3; for `CCN(CC)CCOC(=O)c1ccc(N)cc1` [Procaine]: 127.
The same measure for `Clc1ccc(COC(Cn2ccnc2)c2ccc(Cl)cc2Cl)cc1.O=[N+]([O-])O` (stereo not given) [Econazole nitrate]: 113; for `Clc1ccc2c(c1)C(N1CCNCC1)=Nc1ccccc1O2` [Amoxapine]: 112; for `COC1=C(OC)C(=O)C(CCCCCCCCCCO)=C(C)C1=O` [Idebenone]: 107.
With `Nc1ccn(CC(CO)OCP(=O)(O)O)c(=O)n1.O.O` (stereo not given) [Cidofovir dihydrate] the figure was 109; with `CCOC(=O)C(CCc1ccccc1)NC(C)C(=O)N1C(=O)N(C)CC1C(=O)O.Cl` (stereo not given) [Imidapril HCl], 103; with `CCCCC(=O)N(Cc1ccc(-c2ccccc2-c2nnn[nH]2)cc1)[C@H](C(=O)O)C(C)C.CCOC(=O)[C@H](C)C[C@@H](Cc1ccc(-c2ccccc2)cc1)NC(=O)CCC(=O)O`, 106.
As for `CC(O)(P(=O)(O)O)P(=O)(O)O` [Etidronate], the cell viability is 126.
With `CCn1cc(C(=O)O)c(=O)c2cnc(N3CCCC3)nc21` [Piromidic Acid] the figure was 99.3; with `COC(=O)C1=COC(O)C2C(CO)=CCC12` (stereo not given) [Genipin], 97.9; with `O=C1OC(C(O)CO)C(O)=C1O` (stereo not given) [Vitamin C], 105.
Consider `Cc1cc(=O)[nH]c(=S)[nH]1` [Methylthiouracil], for which the cell viability was found to be 99.
In turn, `CC(C)N=c1cc2n(-c3ccc(Cl)cc3)c3ccccc3nc-2cc1Nc1ccc(Cl)cc1` [Clofazimine] came in with a cell viability of 94.5.
Consider `NS(=O)(=O)c1cc2c(cc1Cl)NC=NS2(=O)=O` [Chlorothiazide], for which the cell viability was determined as 113.
The same measure for `CCn1cc(C(=O)O)c(=O)c2cc(F)c(N3CCNC(C)C3)c(F)c21.Cl` (stereo not given) [Lomefloxacin HCl]: 97.2; for `Nc1ncnc2c1ncn2C1OC(CO)C(O)C1O` (stereo not given) [Vidarabine]: 92.1.
With `Cc1ccc(=O)n(-c2ccccc2)c1` [Pirfenidone] the figure was 112; with `CCCCc1oc2ccc(NS(C)(=O)=O)cc2c1C(=O)c1ccc(OCCCN(CCCC)CCCC)cc1.Cl` [Dronedarone HCl], 135.
With `COc1cccc2c1C(=O)c1c(O)c3c(c(O)c1C2=O)CC(O)(C(=O)CO)CC3OC1CC(N)C(O)C(C)O1.Cl` (stereo not given) [Epirubicin HCl] the figure was 22.1; with `O=C(O)C1=COC(OC2OC(CO)C(O)C(O)C2O)C2C(CO)=CCC12` (stereo not given) [Geniposidic acid], 117; with `Cc1cccc(CN2CCN(C(c3ccccc3)c3ccc(Cl)cc3)CC2)c1.Cl.Cl` (stereo not given) [Meclizine 2HCl], 125.
For the compound `COC(c1ccccc1)(c1ccccc1)C(Oc1nc(C)cc(C)n1)C(=O)O` (stereo not given) [Ambrisentan], the cell viability is 89.
The compound `O=C(O)CSCC(=O)NC1CCSC1=O` (stereo not given) [Erdosteine] yielded a cell viability of 104.
As for `CS(=O)(=O)Nc1ccc([N+](=O)[O-])cc1Oc1ccccc1` [Nimesulide], the cell viability is 107.
The same measure for `Cc1ccc(-n2[nH]c(C)c(NN=C3C=CC=C(c4cccc(C(=O)O)c4)C3=O)c2=O)cc1C` [Eltrombopag]: 92.9; for `O=C(O)CCc1nc(-c2ccccc2)c(-c2ccccc2)o1` [Oxaprozin]: 94.
With `CCOC(=O)n1ccn(C)c1=S` [Carbimazole] the figure was 107; with `COC(=O)c1ccc2c(c1)NC(=O)C2=C(Nc1ccc(N(C)C(=O)CN2CCN(C)CC2)cc1)c1ccccc1` [Nintedanib (BIBF 1120)], 117.
The same measure for `Cc1c(NC(=O)c2cccnc2)c(=O)n(-c2ccccc2)n1C` [Nifenazone]: 77.2; for `CCCCN1CCCCC1C(=O)Nc1c(C)cccc1C.Cl` (stereo not given) [Bupivacaine HCl]: 117; for `COS(=O)(=O)[O-].C[N+]1(C)CCC(=C(c2ccccc2)c2ccccc2)CC1` [Diphemanil Methylsulfate]: 103.
In turn, `Cc1cc(C=CC#N)cc(C)c1Nc1ccnc(Nc2ccc(C#N)cc2)n1` [Rilpivirine] displayed a cell viability of 83.1.
The same measure for `Cn1c(=O)c2c(ncn2CC2OCCO2)n(C)c1=O` [Doxofylline]: 103.
The same measure for `Nc1ccc(S(N)(=O)=O)cc1` [Sulfanilamide]: 96.6; for `CO[C@H]1/C=C/O[C@@]2(C)Oc3c(C)c(O)c4c(O)c(c5c(nc6cc(C)ccn65)c4c3C2=O)NC(=O)/C(C)=C\C=C\[C@H](C)[C@H](O)[C@@H](C)[C@H](O)[C@@H](C)[C@H](OC(C)=O)[C@@H]1C` [Rifaximin (Xifaxan)]: 107.
In the case of `NS(=O)(=O)c1cc2c(cc1Cl)NC(C(Cl)Cl)NS2(=O)=O` (stereo not given) [Trichlormethiazide], the cell viability turned out to be 88.1.
The same measure for `O=C(Oc1ccccc1C(=O)O)c1ccccc1O` [Sasapyrine]: 101.
